Measurements: PubChem BioAssay AID1468 (National Center for Advancing Translational Sciences (NCATS), 2008)
Values joined by “and” are separate entries in the source; they are usually repeats but may differ in a detail not shown here. Equal entries are not always repeated. The whole screen tested about 280,000 compounds, of which about 1,100 (0.39%) were called active. Inconclusive results, whose numbers are uncertain, are shown with a selection of clear calls. The call rests on the fitted dose curve; in most records, active means well fitted inhibition curve with a large enough effect; inconclusive means small, poorly fitted or top-dose-only effect, or effect the other way; inactive means flat fitted curve, though single readings scatter. Where the call is inconclusive, the potency comes from a doubtful curve fit. Where a SMILES comes first, the peptide text is derived from it. The star is where a group is joined. Cbz = O=C(OCc1ccccc1)*

target: Microtubule-associated protein tau (Homo sapiens) (UniProt P10636); test: qHTS for Inhibitors of Tau Fibril Formation, Fluorescence Polarization; conditions: K18 P301L tau heparin fibrillization, Alexa594 FP, 6 h; series mostly up to 57.7 µM; further: nearly all actives have a fitted effect of over 55% in size
Chain of UniProt P10636 (P10636 whole entry, looked up): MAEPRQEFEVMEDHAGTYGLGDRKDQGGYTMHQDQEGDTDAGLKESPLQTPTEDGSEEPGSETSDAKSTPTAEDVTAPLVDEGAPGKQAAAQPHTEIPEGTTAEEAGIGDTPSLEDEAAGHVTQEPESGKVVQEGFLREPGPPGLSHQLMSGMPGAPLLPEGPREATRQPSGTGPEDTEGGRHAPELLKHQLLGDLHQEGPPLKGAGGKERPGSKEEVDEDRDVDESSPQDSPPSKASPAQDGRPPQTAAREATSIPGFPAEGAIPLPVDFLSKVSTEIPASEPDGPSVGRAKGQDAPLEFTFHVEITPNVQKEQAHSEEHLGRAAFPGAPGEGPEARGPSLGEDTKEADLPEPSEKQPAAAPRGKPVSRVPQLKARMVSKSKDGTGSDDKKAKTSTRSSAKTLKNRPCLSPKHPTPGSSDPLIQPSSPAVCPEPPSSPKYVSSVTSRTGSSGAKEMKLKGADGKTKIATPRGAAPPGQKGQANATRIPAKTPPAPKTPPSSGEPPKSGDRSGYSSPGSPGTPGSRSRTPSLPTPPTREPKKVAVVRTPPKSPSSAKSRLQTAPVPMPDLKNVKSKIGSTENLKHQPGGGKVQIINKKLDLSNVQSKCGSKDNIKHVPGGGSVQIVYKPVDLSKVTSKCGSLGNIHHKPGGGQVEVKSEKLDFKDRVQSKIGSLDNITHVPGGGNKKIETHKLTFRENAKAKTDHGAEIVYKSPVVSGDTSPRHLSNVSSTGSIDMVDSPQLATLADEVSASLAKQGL
Summary of the method: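 Quantitative HTS format: compounds meet 15 uM recombinant K18 P301L tau and Alexa 594-tau tracer in 100 mM sodium acetate pH 7; 20 uM heparin triggers fibrillization at 37 C over 6 hr; FP gives the signal.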
Potency means the concentration at half of the fitted maximal effect; tags describe the fitted curve by direction and shape.

Potency, active:
O=C(Nc1ccccc1)Nc1ccc(Br)c(Cl)c1 14.1 µM, O=C[C@@H]1CCCN1C(=O)[C@@H]1CCCN1C(=O)OCc1ccccc1 (Cbz-Pro-Pro-aldehyde) 22.4 µM, O=C(Nc1cc(Cl)cc(Cl)c1)c1ccc(F)c(S(=O)(=O)NC2CCCC2)c1 10 µM, c1cc2c(cc1-c1csc(NNC3=NCCCCC3)n1)OCCO2 28.2 µM

Potency, inconclusive:
Cc1nn(C)c(Cl)c1S(=O)(=O)N[C@@H](c1ccccc1)[C@]1(C)C[C@H]1[C@@H](C)C(=O)Nc1ccc2ccccc2c1 31.6 µM [inhibitor, single point], Cc1ccc(SCc2[nH]nc3c2C(c2ccc(C)o2)C(C#N)=C(N)O3)cc1 (stereo not drawn) 39.8 µM [inhibitor, single point], CCOc1cc(C=C(C#N)C#N)ccc1Oc1ccc([N+](=O)[O-])cn1 35.5 µM [inhibitor, single point], O=C1C2=CC[C@H]3C(=O)N(c4cccc(Oc5ccccc5)c4)C(=O)[C@@H]3[C@@H]2[C@H](O)[C@@H]2O[C@H]12 1.58 µM [inhibitor, partial curve], Cc1ccc(NC(=O)CS(=O)(=O)c2nc(-c3ccc(C)cc3)cn2-c2ccc(C)cc2)cc1 28.2 µM [inhibitor, single point], CC(C)(C)NC(=O)CSc1nc(-c2ccccc2)c(-c2ccccc2)[nH]1 44.7 µM [activator, single point], CC(C)CN=Cc1c(O)c([N+](=O)[O-])cc2oc3c(c12)CCCC3 20 µM [inhibitor, partial curve, poor fit], C[C@H](NC(=O)c1[nH]cnc1C(=O)Nc1ccccc1)C(=O)OC(C)(C)C 31.6 µM [inhibitor, single point], O=S(=O)(c1ccc2ccccc2c1)n1nc(-c2ccco2)nc1NCc1ccc(F)cc1 3.98 µM [inhibitor, partial curve], COc1cccc(Cn2c(-c3nonc3N)nc3ccccc32)c1 28.2 µM [inhibitor, partial curve], C[C@@H](C(=O)Nc1ccc2ccccc2c1)[C@H]1C[C@]1(C)[C@H](NC(=O)c1ccccc1)c1ccccc1 44.7 µM [inhibitor, single point], O=C(N/N=C/c1ccc(Cl)cc1)c1cc(-c2cccnc2)nc2ccccc12 39.8 µM [inhibitor, single point], COc1ccccc1Nc1nn2c(=O)c3ccc(C(=O)NCc4cccs4)cc3nc2s1 17.8 µM [inhibitor, partial curve], C[C@@](Cc1ccc(O)c(O)c1)(NN)C(=O)O 15.8 µM [inhibitor, partial curve] and 22.4 µM [inhibitor, partial curve] and 39.8 µM [inhibitor, single point], O=S(=O)(Nc1nc(SCc2ccc(Cl)cc2)n[nH]1)c1ccccc1 20 µM [inhibitor, partial curve], Cc1cc(Nc2ccc(C)c(C)c2)n2cnnc2n1 3.55 µM [inhibitor, single point], Cc1ccc(S(=O)(=O)c2cnc(SCC(=O)Nc3cc(C)cc(C)c3)nc2N)cc1 20 µM [inhibitor, partial curve], C/C(N)=C(/C#N)C(=O)COC(=O)CSc1ccc2ccccc2c1 39.8 µM [inhibitor, single point], Cc1cccc(OCc2ccc(-c3nc(C#N)c(NCCN(C)C)o3)o2)c1 22.4 µM [activator, partial curve], O=C(Nc1cc(C(F)(F)F)cc(C(F)(F)F)c1)Nc1cnn(-c2ccc([N+](=O)[O-])cc2)c1C(F)(F)F 3.55 µM [inhibitor, full curve], CCCCc1ccc(-n2nc3cc(C)c(NC(=O)Cc4ccccc4)cc3n2)cc1 31.6 µM [inhibitor, single point], N#C/C(=C\c1ccc([N+](=O)[O-])cc1)C(=O)Nc1ccccc1O 44.7 µM [inhibitor, single point], COC(=O)c1c(-c2cccs2)csc1NC(=O)c1ccc(Cl)cc1 25.1 µM [inhibitor, partial curve], N#Cc1nc(-c2ccco2)oc1N1CCN(Cc2ccccc2)CC1 0.126 µM [inhibitor, full curve, poor fit], Cc1cccc2nc(-c3ccccc3)nc(N3CCC(O)(c4ccc(Cl)cc4)CC3)c12 39.8 µM [inhibitor, single point], Cc1ccc(-c2nnc(Nc3cccc(Cl)c3)c3ccccc23)cc1S(=O)(=O)NCC1CCCO1 (stereo not drawn) 15.8 µM [inhibitor, partial curve], CC1=CC(C)(C)Nc2ccc(OC(=O)CN3C(=O)c4cccc5cccc(c45)C3=O)cc21 17.8 µM [inhibitor, partial curve], Nc1nc(-c2ccccc2)cc(-c2ccccc2O)n1 35.5 µM [inhibitor, partial curve], O=c1oc(-c2ccccc2F)nc2scc(-c3ccccc3)c12 3.16 µM [inhibitor, full curve, poor fit], CC(C)NC(=O)Cn1nnc(-c2ccc(Cl)cc2)n1 25.1 µM [inhibitor, single point], Cc1cc(O)c(NC(=S)NC(=O)c2ccc(-c3ccc(Cl)cc3)o2)cc1C 11.2 µM [activator, partial curve], CC(C)CCNC(=O)CO/N=C/c1ccccc1OC(F)F 35.5 µM [inhibitor, single point], CCOC(=O)C1=C(C)Nc2sc(C(=O)c3ccc(Br)cc3)c(N)c2C1c1ccc(C(=O)OC)cc1 (stereo not drawn) 17.8 µM [activator, partial curve], COc1ccc(NC(=O)Nc2cccs2)cc1Cl 0.501 µM [activator, full curve, poor fit], O=C(NN=C1CCC(=NNC(=O)c2cccnc2)CC1)c1cccnc1 39.8 µM [inhibitor, single point], COc1ccc(C(=O)c2c(C(F)(F)F)oc3c2C(=O)c2ccccc2C3=O)cc1 0.251 µM [activator, partial curve, poor fit], COc1ccc(NC(=O)CCCN2C(=O)/C(=C\c3ccco3)SC2=S)cc1 10 µM [inhibitor, single point], CC1=NN(c2ccc(S(=O)(=O)O)cc2C)C(=O)C1 5.62 µM [inhibitor, partial curve, poor fit], Cc1cc(C)cc(NC(=S)NCc2ccc3[nH]c4c(c3c2)CCCC4)c1 2.51 µM [activator, full curve]

Potency, inactive:
COc1ccc(N2CCN(C(=O)CSc3nnc(Cn4nnc5ccccc54)n3C)CC2)cc1, CC1CCCC(C)N1C(=S)NCc1ccco1 (stereo not drawn), CN(C)NC(=S)NC(=O)C12CC3CC(CC(C3)C1)C2, Cc1cc(NS(=O)(=O)Cc2ccccc2)cc(C)c1OCC(=O)N1CCOCC1, COc1ccc(NC(=O)CC(c2ccc(F)cc2)c2ccc(OC(C)C)cc2)cc1 (stereo not drawn), COc1ccc(-c2[nH]c(-c3ccc(C)cc3)nc2SCC(=O)NC2CCCC2)cc1, O=C(CSCc1ccccc1)N1CCN(Cc2ccc3c(c2)OCO3)CC1, COC(=O)c1ccc(OCC(O)Cn2cnc3cc(C)c(C)cc32)cc1 (stereo not drawn), O=C(Nc1cnccn1)c1csc2ccccc12, Cn1c(=O)[nH]c(=O)c2[nH]c(N(Cc3ccccc3)Cc3ccccc3)nc21, C=C(C)Cn1cnc2c(oc3nc4c(cc32)CCCC4)c1=O, Cc1ccc2cccc(NC(=O)COc3ccccc3[N+](=O)[O-])c2n1, C=CCNC(=S)NNC(=O)c1cccc2ccccc12, Cn1nc(-c2ccc(OCC(=O)Nc3cccnc3)cc2)c2ccccc2c1=O, CCS(=O)(=O)N1CCC(C(=O)NCCC(C)C)CC1, CCc1ccc(-c2nc(CN3CCC(C(=O)NCc4ccc(F)cc4)CC3)c(C)o2)cc1, CN(C1CCCCC1)S(=O)(=O)c1ccc2c(c1)c(=O)c(C(=O)NCCc1ccc(Cl)cc1)cn2C, O=C(c1cccc([N+](=O)[O-])c1)N1c2ncnn2C2(CCCCC2)[C@@H]2CCCC[C@@H]21, CC(=O)Nc1ccc(S(=O)(=O)NC2(C(F)(F)F)NC(=O)N(c3ccc(C)cc3)C2=O)cc1 (stereo not drawn), O=c1[nH]cnc2nc[nH]c12, O=S(=O)(Nc1nc2ccccc2nc1Nc1cccc(S(=O)(=O)N2CCCCC2)c1)c1ccccc1, O=C(/C=C/c1ccc(Cl)c([N+](=O)[O-])c1)Nc1ccc(N2CCCC2)cc1, COc1ccc(C(CC(=O)Nc2ccccn2)N2Cc3ccccc3C2=O)cc1OC (stereo not drawn), COc1ccccc1NC(=O)Cc1nnc(SCC(=O)Nc2ccccc2F)n1C, O=C(NCCO)C(=O)NCC(c1ccc2c(c1)OCO2)N1CCOCC1 (stereo not drawn)
